# Measured values taken from PMC6919601, “Identification of Plasmodium dipeptidyl aminopeptidase allosteric inhibitors by high throughput screening” (PLoS ONE, 2019).
# Values joined by “and” are separate entries in the source; they are usually repeats but may differ in a detail not shown here. Equal entries are not always repeated. Among all 110,000 compounds or so, about 230 (0.21%) showed an effect of 50% or more. Some of the results follow.
# Target: DPAP1 (Plasmodium falciparum, UniProt Q8IIJ9)
# Assay: primary screen, percent inhibition; read by cleavage of a fluorogenic dipeptide substrate; higher = more effect of the substance
# Parameters: species or system P. falciparum D10 trophozoite lysates; single well
# 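Note: 30 min substrate incubation versus DMSO and 10 µM JCP410 controls.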
# DPAP1, sequence (Q8IIJ9 whole entry, looked up): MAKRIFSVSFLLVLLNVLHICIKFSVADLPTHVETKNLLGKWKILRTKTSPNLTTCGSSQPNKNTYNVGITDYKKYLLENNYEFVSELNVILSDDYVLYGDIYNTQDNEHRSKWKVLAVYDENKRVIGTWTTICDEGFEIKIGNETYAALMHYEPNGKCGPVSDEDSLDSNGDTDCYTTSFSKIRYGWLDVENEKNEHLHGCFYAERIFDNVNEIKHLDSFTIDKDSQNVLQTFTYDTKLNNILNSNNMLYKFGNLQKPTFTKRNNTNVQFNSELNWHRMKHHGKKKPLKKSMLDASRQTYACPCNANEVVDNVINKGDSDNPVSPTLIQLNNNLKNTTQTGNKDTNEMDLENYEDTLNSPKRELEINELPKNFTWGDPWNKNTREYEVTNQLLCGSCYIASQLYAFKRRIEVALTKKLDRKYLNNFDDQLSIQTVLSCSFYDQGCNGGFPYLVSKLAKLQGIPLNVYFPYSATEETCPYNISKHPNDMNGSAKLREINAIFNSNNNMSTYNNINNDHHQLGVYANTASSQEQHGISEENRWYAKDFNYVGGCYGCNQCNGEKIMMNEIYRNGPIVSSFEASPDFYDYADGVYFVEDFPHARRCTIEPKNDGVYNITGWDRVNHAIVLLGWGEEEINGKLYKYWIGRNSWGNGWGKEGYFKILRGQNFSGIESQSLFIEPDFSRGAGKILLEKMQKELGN
row,Compound,% Inhibition @ 10 uM
1,COc1ccc(-c2cn3nc(N4CCC(C(=O)N5CCCCCC5)CC4)sc3n2)cc1,-4.44%
2,C=CCSc1nc2sc3c(c2c(=O)n1Cc1ccccc1)CCCC3,4.57%
3,O=C(/C=C/c1cccc([N+](=O)[O-])c1)c1ccccc1,0.00178%
4,Cc1oc(-c2ccc(C(=O)NCC3CCCO3)cc2)nc1CS(=O)c1ccccc1 (centres unmarked),-0.416%
5,CC1CCC(NC(=O)C2CCN(C(=O)c3cnn(-c4ccccc4)c3-n3cccc3)CC2)CC1 (centres unmarked),-1.58%
6,O=C1CC(c2ccccc2)C2=C(CC(c3ccccc3)CC2=O)N1 (centres unmarked),-3.14%
7,CC1=CC2=NC(=O)/C(=C\c3ccco3)C(=N)N2O1,0.317%
8,CN1CCN(C2CC3CCC2C3)CC1 (centres unmarked),-3.35%
9,COc1cc(C2C(C#N)=C(N)OC3=C2C(=O)CCC3)cc(Br)c1O (centres unmarked),-3.99%
10,CCOC(=O)N1CCN(C(=O)CSc2c3c(nc4ccccc24)CCCC3)CC1,-7.05%
11,COc1cc(N2CCCC2)c(OC)cc1/C=C1/NC(=O)NC1=O,-0.62%
12,CCN1C(=O)C(CC(=O)Nc2cc(Cl)ccc2C)S/C1=N\c1cccc(C(C)=O)c1 (centres unmarked),0.793%
13,C=CCn1c(=S)[nH]c2c(c1=O)C1(CCCC1)Cc1ccccc1-2,2.16%
14,CCc1cccc(C(=O)N[C@@H](CC(C)C)C(=O)NC(C#N)c2ccc(C)o2)c1 (some centres unmarked),1.71%
15,Cc1ccc(Cn2ccc(NC(=O)c3cc(C)on3)n2)cc1,-11.5%
16,COc1ccc(C2CC(=O)N3CN(C(C)c4ccccc4)CSC3=C2C#N)cc1OC (centres unmarked),28%
17,O=c1c(-c2ccc(Cl)cc2Cl)coc2cc(O)ccc12,9.39%
18,O=C(CSc1nc(-c2cccc(F)c2)[nH]c1-c1ccccc1)NCc1ccco1,-1.58%
19,COc1ccc(CN2CCN(Cc3cccc(F)c3)CC2)cc1,-9.07%
20,COc1ccc(OC)c(C2CC(=O)N3CN(C4CCCCC4)CSC3=C2C#N)c1 (centres unmarked),9.77%
21,O=C(NCCCN1CCOCC1)c1cc2ccccc2[nH]1,0.0539%
22,CCOc1ccc(C2CC(=O)NC3=C2C(=O)CC(c2cccs2)C3)cc1 (centres unmarked),-3.51%
23,CC(C)C(O)(C#CCN1CCCCC1)C(C)C,0.912%
24,COc1cc(-c2nc3n(n2)C(c2ccccc2)C(C(=O)Nc2cccnc2)=C(C)N3)cc(OC)c1OC (centres unmarked),1.96%
25,Cc1cccc(N2C(=O)CC(N3CCN(C/C=C/c4ccccc4)CC3)C2=O)c1 (centres unmarked),6.1%

row,Compound,% Inhibition @ 10 uM
1,CCOc1ccc2[nH]c(SCC(=O)Nc3cccc(C(C)=O)c3)nc2c1,-7.09%
2,Cc1ccc(-c2[nH]nc3c2C(c2ccccc2)C2=C(O)CC(C)(C)CC2=N3)cc1 (centres unmarked),-3.85%
3,COc1ccc(C2=NC(C)(C)Cc3cc(OC)c(OC)c(OC)c32)cc1OC,1.74%
4,Cc1cccn2c(=O)c3cc(C(=O)NCCCOC(C)C)n(C)c3nc12,-7.22%
5,CC(C)Cn1c(C(O)c2ccccc2)nc2ccccc21 (centres unmarked),3.81%
6,CCc1cccc(NC(=O)c2ccc3c(c2)OCO3)c1,-1.86%
7,Cc1ccc2[nH]c(SCc3ccccc3C)nc2c1,25.2%
8,CCOC(=O)N1CCC(NC(=O)CCCn2nc(C)c3sc4ccccc4c3c2=O)CC1,-6.82%
9,CC(=O)N1CCC(N2CCN(c3ncccn3)CC2)CC1,0.273%
10,O=c1oc(-c2ccccc2)nc2sc3c(c12)CCCCC3,0.219%
11,O=C(Cc1c2ccccc2nc2ccccc12)c1ccccc1,3.95%
12,O=C(Cc1c(C(=O)O)[nH]c2ccccc12)NCc1cccnc1,2.83%
13,CCOC(=O)c1c(CN2CCOCC2)n(C2CCCCC2)c2cc(Br)c(O)cc12,1.76%
14,Cc1ccc(-n2nc(C)c3c(C)c(CCC(=O)N4CCC5(CC4)OCCO5)c(C)nc32)cc1,-0.72%
15,COc1ccc(-c2cc3c(=O)n(CC(=O)NCCCN4CCCC4=O)ncn3n2)cc1,3.67%
16,COc1cc(NC(=O)CN2C(=O)c3ccccc3C2=O)c(OC)cc1Cl,-0.622%
17,COc1ccc(C(O)(c2ccc(OC)cc2)c2cccc(F)c2)cc1,3.24%
18,Cc1ccc(CN2C(=O)N/C(=C/c3ccccc3OCC(=O)Nc3ccc(F)cc3)C2=O)cc1,11.1%
19,CCOC(=O)CN(C)Cc1cccc(Br)c1,-3.42%
20,COc1cc(NC(=O)c2cnn3c(C(F)F)cc(-c4ccc(C)cc4)nc23)c(C(C)=O)cc1OC,-11.6%
21,CC1CCCN(S(=O)(=O)c2cccc(-c3cn4ccccc4n3)c2)C1 (centres unmarked),1.74%
22,CCN1C(=O)c2cccc3c(NC(=O)c4ccc(S(=O)(=O)N5CCCCC5)cc4)ccc1c23,2.92%
23,CS(=O)(=O)C1=NN2C(=N)/C(=C\c3ccc(O)c(O)c3)C(=O)N=C2S1,0.208%
24,CCCCCOc1ccc2c(C)cc(=O)oc2c1,1.48%
25,Cc1cc(-c2ccc(C)c(S(=O)(=O)N(Cc3ccco3)C(C)c3ccccc3)c2)on1 (centres unmarked),-0.166%

row,Compound,% Inhibition @ 10 uM
1,CCOc1ccc2c(c1)c(C(=O)O)c(C)n2C,-0.197%
2,CCN(CC)C(=O)COc1cc(C)c(Cl)c(C)c1,6.69%
3,Cc1ccc(S(=O)(=O)CC(=O)Nc2ccccc2Cl)cc1,-9.28%
4,CCOc1ccc2nc(SCC(=O)N3CCc4ccccc4C3)sc2c1,0.343%
5,Cc1ccc(S(=O)(=O)c2nnn3c2nc(N2CCCCC2)c2ccccc23)cc1C,-3.08%
6,O=S(=O)(Nc1ccc(Oc2ccc(NS(=O)(=O)c3cccs3)cc2)cc1)c1cccs1,9.33%
7,CN(C)CCN(C)C1CCN(Cc2ccccc2)CC1,0.162%
8,COc1cc(CN2CCN(Cc3ccccc3C)CC2)cc2c1OCO2,-5.98%
9,COc1ccc(OC)c(NC(=O)CN(c2cc(Cl)cc(Cl)c2)S(C)(=O)=O)c1,-3.75%
10,Cc1ccc(N2Cc3ccccc3C2=O)cc1,-5.41%
11,C=CCSc1nc(=O)c(CC)c(O)n1C(C)CC (centres unmarked),0.827%
12,Cn1ncc2c(NCc3ccc4c(c3)OCO4)ncnc21,-0.757%
13,O=S(=O)(c1ccc(Oc2ccccc2Cl)c(S(=O)(=O)N2CCCC2)c1)N1CCCC1,-7.62%
14,COc1ccc(NC(=O)CN(c2ccc(C34CC5CC(CC(C5)C3)C4)cc2)S(C)(=O)=O)c(OC)c1,-1.98%
15,COCCCNC(=O)CCc1c(C)nc2c(c(C)nn2-c2ccc(C)cc2)c1C,-2.45%
16,CCOC(=O)c1cc2c(=O)n3ccccc3nc2n(C)/c1=N\C(=O)c1ccccc1C(F)(F)F,-2.04%
17,CCCC(C)NC(=O)c1cc(-c2ccccc2)nc2ccccc12 (centres unmarked),-15.7%
18,O=C1NC(=O)N(c2cccc3ccccc23)C(=O)/C1=C\c1cc2ccccc2[nH]1,5.66%
19,Oc1ccc(CSc2nc3ccccc3s2)c2cccnc12,2.57%
20,CN(C)CN1C(=O)S/C(=C/c2ccccc2F)C1=O,-1.32%
21,COc1ccc(CC(=O)Nc2ccc(Cl)c(Cl)c2)cc1,-0.969%
22,CN(Cc1ccc(Cl)c(Cl)c1)CC(O)c1ccccc1 (centres unmarked),3.15%
23,CC1=C(C(=O)Nc2ccc(Cl)cc2)C(c2cccs2)NC(=O)N1 (centres unmarked),3.61%
24,CCN(CC)C(=S)NC(=O)/C=C/c1ccc(F)cc1,-5.97%
25,CC(C)(C)c1ccc(C2=N/C(=C\c3ccc4c(c3)OCO4)C(=O)O2)cc1,-3.89%

row,Compound,% Inhibition @ 10 uM
1,COc1ccc(Cc2nnc(C(=O)NC(C)C)o2)cc1OC,1.49%
2,OCCN(Cc1ccccc1)Cc1ccccc1F,-4.37%
3,CC(=O)C1=C(O)C(=O)N(CC#N)C1c1ccc(O)cc1 (centres unmarked),-2.74%
4,O=C(Nc1ccc(F)cc1F)c1cnn2c1NC(c1cccs1)CC2C(F)(F)F (centres unmarked),0.992%
5,CN1CCN(c2nnc(-n3cccc3)s2)CC1,-3.47%
6,O=S(=O)(Nc1ccccc1)c1ccc(C2CCCCC2)cc1,-3.55%
7,O=C1Nc2c(c(=O)[nH]c(=O)n2Cc2ccccc2)C1(NS(=O)(=O)c1ccccc1)C(F)(F)F (centres unmarked),5.3%
8,CC1C(c2ccccc2)N(C)CCC12NC(=O)NC2=O (centres unmarked),-2.51%
9,O=C(NCC1CCCO1)C1CCC(CNS(=O)(=O)c2ccccc2)CC1 (centres unmarked),-2.72%
10,O=C(NC1=NCCS1)c1ccccn1,-3.21%
11,Cc1ccccc1C1N(c2ccccn2)C(=O)C2CCCN21 (centres unmarked),1.23%
12,CCCOc1cccc(-c2cc(C(=O)NCC3CCCO3)c3ccccc3n2)c1 (centres unmarked),-4.15%
13,Cc1cc(C)cc(Oc2c(C(F)(F)F)oc3cc(OCC(=O)N4CCCCC4)ccc3c2=O)c1,-5.51%
14,Cc1nc2c(Cl)cc(Cl)cc2c(=O)n1-c1ccccc1F,2.05%
15,Cc1[nH]nc(-c2ccccc2)c1Br,-4.35% and -4.93%
16,O=c1cc(-c2ccccc2)c2ccc3c(c2o1)CN(c1cccnc1)CO3,6.01%
17,Cc1cc(C)n(-c2nc(-c3ccccc3)cc(-c3ccc(Br)cc3)n2)n1,4.63%
18,O=C(c1cccc(S(=O)(=O)N2CCCCC2)c1)N1CCCCC1,-5.41%
19,O=C(c1ccccc1[N+](=O)[O-])N1CCCCCC1,-8.39%
20,COc1cccc(C2C(C(=O)c3ccccc3)=C(O)C(=O)N2CCN2CCOCC2)c1 (centres unmarked),0.205%
21,CC1CCCN(CCCNC(=O)c2nn(C)c3c2CS(=O)(=O)c2ccccc2-3)C1 (centres unmarked),-0.495%
22,C=CCn1c(SCC(=O)Nc2ncc3c(n2)CC(c2ccccc2)CC3=O)nnc1-c1ccccc1 (centres unmarked),-1.47%
23,CCOc1ccccc1NC(=O)C1=C(C)NC(=O)NC1c1ccccc1Br (centres unmarked),-2.6%
